Reference: article PMC10726135
The other results are listed elsewhere or left out. At the low end of the ranking the order means little. The protein was read in a cell extract, so binding may be indirect.

Biological target: T1, HNF4alpha8 (COS-7 nuclear extract) (UniProt P41235-5)
T1 sequence: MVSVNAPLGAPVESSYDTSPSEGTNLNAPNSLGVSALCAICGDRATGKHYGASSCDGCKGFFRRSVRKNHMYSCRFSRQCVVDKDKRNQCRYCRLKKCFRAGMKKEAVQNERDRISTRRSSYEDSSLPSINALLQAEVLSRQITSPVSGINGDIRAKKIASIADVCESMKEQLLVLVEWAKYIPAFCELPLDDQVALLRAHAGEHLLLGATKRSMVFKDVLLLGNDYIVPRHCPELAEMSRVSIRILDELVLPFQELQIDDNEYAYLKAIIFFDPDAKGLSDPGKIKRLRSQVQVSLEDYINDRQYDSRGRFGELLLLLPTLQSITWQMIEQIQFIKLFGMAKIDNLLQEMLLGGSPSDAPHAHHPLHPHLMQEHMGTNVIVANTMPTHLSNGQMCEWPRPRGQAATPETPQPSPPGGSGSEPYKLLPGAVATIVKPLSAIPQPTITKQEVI
Assay: protein-binding microarray
Settings: COS-7 nuclear extract on double-stranded Agilent 4x180k PBM; binding buffer, salt, pH and temperature not given; high values mean tight binding; double strand, one strand shown; sequences stand for … in …GCCTAGGGAGATTAGAGTATCGGTCGA

Row | Sequence | binding signal (log2 normalized intensity)
1 | CCCAAATAGACTTAAGTCTGAATTCTAGTC | 0.0755
2 | ATATGCCGAGAATGCAGCCTTATCTTCCAG | -1.23
3 | CTGTGGTCATTAATTAACTTGTGTTCAGAG | 1.07
4 | GTAGGCTCTCGGGCCAGCTGTACAAATAAA | -1.41
5 | CCAGCATTTCTGTGGACTGCTCCAGTGGAC | 1.22
6 | GGAATGTTGCTGTGCTGCCCTCTTGTGGCC | 2.61
7 | GAGTCGTGGCCTTGCCATTGGAGGTCACCC | 3.15
8 | GATCTTCATGAACTTCTGTCCACAGACTCT | 0.169
9 | AAGGACATTGCCCCCTATGTAAAGGCCTTT | 3.97
10 | ACCCCCCAGAGGGCCATCTAGCTTAAAGGT | 1.67
11 | TGATGAACTTTCAAGATGAAGCAAGAGTCC | 1.49
12 | TTACCTAAGGAAGTTAACCCCATCACCCAT | 3.42
13 | TGGACTGTTCAAGACCAAAGGTCATGGCAA | 5.58
14 | AAACATCAAGGAAGAGAACTCCCTATCCCC | 1.36
15 | TGAGTTTTCCATTTACCTCCGCTGAACCTA | 1.76
16 | ATCCGGCTGGCAGCCGATTGACCTGACCCA | 3.71
17 | GTGGGGTGGAAGCTATGCCTGAGGCTGAGG | -1.26
18 | TTCTGCCCTGCCCTCAGGGAATCCTGCATT | 0.864
19 | CCGTGGGGCTCCTTTGATCTCCGTGTTTGG | 1.68
20 | TTGGACTTTGACCTCCAAAATTATAAGTCA | 8.58
21 | TGCTGAGCAACTATAAAACAGGAAAAAGGG | -1.44
22 | TAAAAAGAAGCTTGGTATGTCTGATGAATA | -0.164
23 | ACTCGTGAAAAGAGTGATCTTTGGGCCATA | 2.28
24 | ACCTGCATCTGCCCAGCAGAGCAGTTTAGA | -1.3

Row | Sequence | binding signal (log2 normalized intensity)
25 | TGCCTCTCCAAACAAATTGAGAAAGATTAA | -1.2
26 | TGCAATGTTAGTCTGGGAAAGCTGCAGGCA | -1.22
27 | GAGAATCCCTCCCCTGTGCAAACTTTTTCC | 2.26
28 | GTTGAAATCCATTGTCAATACCCTGTTATT | 1.02
29 | CAAAAATGATACCCCAGAGTACAGCACTTT | 1.2
30 | AATTCCAGTTACAAACAAAACAAACTAAAC | -1.32
31 | CCAAGTCTGGACCTGCTGGCTTTCTTTGGA | 0.912
32 | CTTTGTGTACAAAGCCATCAGCACTGGTTC | -0.19
33 | TTCCTTCTTCTTCTGGGGACTTCGGTCTTT | 4.12
34 | ATGATAATGCCAAGGACTGAAAGAACACAG | -1.36
35 | GGAAGGATGAATTTAAAAAATTCTAGAGTT | -1.31
36 | TTCAAAGTTTTTCCCCTTGGTGGATTCCGT | 2.17
37 | GCAATGTGTCAGAGAAGGAGCCAGAGCTTT | -1.17
38 | TGGATGGAATGTTCTGAATCTATCTGTTAG | 0.644
39 | ACCTAAGATGTCACAGGCAAGCAAGTGACA | -1.32
40 | ACCATTAACCCTACAGTCCTGCCACATCCC | -0.385
41 | GGTTTAAAGTTCAAGTCATAACTGGATGGT | 1.84
42 | AGGCCTCGGCTTCATTAGCAAATAACAAAG | -1.36
43 | CCGTGGACTCTGCCTGCCCTCTCCATGCAG | 1.39
44 | TCAGACGCCCTATGGCGTCCGCCTCGACCC | 2.16
45 | CCTCAAGGAGTTTTAGATTAGGAGAGGGAG | -1.31
46 | GAGACAGACAGAAAACAAACATTAGCTGCA | -1.25
47 | ACAGTCCACTTTGAATCAGGAGAGCATCTG | -1.17
48 | CTGGCTATTCAGTTTTTATTTTGTATTCTT | 1.4

Row | Sequence | binding signal (log2 normalized intensity)
49 | TCCCACTCTTGGGTCAACATAATATTTAGC | -0.31
50 | CAGCAGCTCAGTAAATTATCTTGATGGTTA | -0.169
51 | ATTGGCCCTTTGACCTTTAATCAAGGGCTG | 5.91
52 | AACTTCTGTCCACAGACTCTGACTGTTATC | 0.245
53 | GACTGACCTTTGATCATTTGAGGGTGACAC | 6.1
54 | AACACTTACACCTGGGTGCTCCCTCCCCCT | 4.49
55 | CTTATCTTCTCCACAGATTCCTGTTAACTT | 0.847
56 | GCAGAAGCAGGCCTCGGGCCTGCGAGGTTA | -1.25
57 | TGAAGCCATCCTCCCACCTCAGCCTCTTGA | 1.43
58 | TAGGGCTCGGCATTCAGACAGACCCAGGGG | -1.24
59 | CTTGTGTAATAACGAGACCTTAGCCCTGAA | -0.451
60 | GTTTAACTGACCCAGGGAGAAAGGTCAGGG | 3.67
61 | CAACCGTCCAGAGTCCACGTACTTAACTAC | 2.21
62 | GCTGTTTTCTCCAGTGCCCTTAGGGGCCGC | 1.84
63 | GGTTCTCAGACCACCAGCTGCTTCGGCCAG | -1.23
64 | TCCTTCCCCTTTTGTGTTTGTCCCTTTCTT | 2.77
65 | CGCCCCCCAGCGGAAGTCCAGTGGTGTCTT | 3.56
66 | GGATGGATCAAAGGAAACTGCTTGGGCCCC | -1.39
67 | TGTTTGGGGCAGGCAGGGGATGAGATCTGA | -1.27
68 | CAGATGAAAGGCGGCAACTTCTTCAGCCTA | -1.41
69 | GCTGAGGAAGACTTCATTCAGGTAGCAGGC | -1.39
70 | GCGCTGCTCGCAAGCAGAACCTTGGAGGCG | -1.13
71 | CACTTGCTATTTGCATCAGCAGAGGACAGA | -1.09
72 | TTCAGCAAACAAAGGCACTTCTCTCTCCAA | -1.34

Row | Sequence | binding signal (log2 normalized intensity)
73 | CTTTGATCAGCAATGGAGAGTGATCAGATA | 0.787
74 | CCCTCTGACCAGAGACATTCCAACCCTGCC | -0.4
75 | CAAACCCAGTTTGCATTTTCATGGACAGAG | 0.658
76 | TGGCCTGATTTGACAAGGCAGAGGTGATTT | 0.405
77 | GGTTAAAGTCCAATCTTCTGGCCCCATCTA | 4.42
78 | CTATAAATACGCCTCGCCCGAGCTGTGCGG | -1.34
79 | ACCCTTGAGCTAAGTCCCAAGGGATAGGCA | -1.26
80 | AGTCTTCCTGTCTCCATTGCCTCACCTCTC | 1.12
81 | GTATGTCTGGGATTTGAAGGAGCAGAATAA | -1.17
82 | ACTTTGGACCCACTGCAGGATTGGAGATCT | 1.57
83 | AAGCCCTACAGCCCACAATTGCATGTTCAA | -1.19
84 | TGTAATTGCTTAAACCTAGCTACTAGCCAT | -1.22
85 | GCTAAGAAGACCAACAGGTGAAGACATGCT | -1.23
86 | TCAGTGTACTTAAAAATGCCTTTCATCTTT | 1.06
87 | ACAACATACCACAATAAAGTATACAAGGGA | -1.2
88 | CTCTACCGTCCTCCCCCACGACAGAATTGA | 4.7
89 | AGTTGTTTGCAGAGGGAAAGCGAGAGAGCC | -1.29
90 | GGCGCCGCTCTGAGTGACCTTTCACCCGCG | 7.77
91 | CTTGAAGCAGAAAACCACTGTGCTCTGAAA | -1.3
92 | CCTTCAAGTCTGAGATGAAGAGGCCAGGGG | -0.871
93 | GTGAAGGTCACAATTTCCAGGAGTATGTGT | 1.26
